# Reference: PubChem BioAssay AID1963576 (National Center for Advancing Translational Sciences (NCATS), 2024)
# Hit rate of the full screen: of about 46,000 compounds, about 60 (0.1%) were called active. Roughly 3% stayed inconclusive and do not appear here. The call rests on the fitted dose curve; in most records, active means well fitted inhibition curve with a large enough effect; inconclusive means small, poorly fitted or top-dose-only effect; inactive means no such curve, though single readings can be large or run the other way. The list shows a part of the results.
# Experiment: Primary qHTS assay for Inhibitors of ovarian cancer metastasis using an organotypic tumor microenvironment (TME) model. Further: nearly all actives have a fitted effect of over 65% in size.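 On Potency: count of GFP cancer cells still attached after washing and fixation.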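 On activity change, negative = inhibition: plate controls were DMSO wells for no effect and tomatine positive control wells for full effect.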
# Settings: SKOV3ip1-GFP adhesion/invasion on 3D omental model, fluorescence; series mostly up to 45.8 µM; activity change, negative = inhibition: at the top concentration
# Outline: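 Primary human omental fibroblast/mesothelial 3D culture pre-formed 48 h. SKOV3ip1-GFP cells added with compounds (0.36-46 umol/L), incubated 2 h RT/16 h 37 C, fixed; GFP cells quantified at 488/509 nm.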
# Potency means the concentration at half of the fitted maximal effect.
Structure (SMILES),"activity change, negative = inhibition",outcome,Potency
Cn1c(=O)c2cc(C(=O)N3CCN(c4cccc(C(F)(F)F)c4)CC3)sc2c2ccccc21,inactive: -4.44%,,
Cc1cc(S(=O)(=O)Nc2cc3c(cc2Cl)n(C)c(=O)c(=O)n3C)ccc1F,inactive: -6.08%,,
Cc1cc(C)c(S(=O)(=O)NCCc2sc(-c3cccnc3)nc2C)c(C)c1,,inactive,
O=C(Nc1cc(C(F)(F)F)ccc1Cl)c1cc(-c2cccs2)nc2ccccc12,inactive: 2.02%,,
CCOc1ccc(NC(=O)c2ccc3c(c2)nnn3C2CCCC2)cc1,,inactive,
CCN(CC)S(=O)(=O)c1ccc(NC(=O)c2ccc3c(=O)n4c(nc3c2)CCCCC4)cc1,inactive: -6.12%,,
Cc1ccccc1CNC(=O)CCc1cn(Cc2ccccc2C)c2ccccc12,inactive: -4.85%,,
CC(C)(C)c1ccc(C(=O)N2CCC(c3noc(-c4ccc(S(=O)(=O)N5CCCC5)cc4)n3)CC2)cc1,inactive: -7.84%,,
CCOc1ccccc1N(C)C(=O)c1cc(S(=O)(=O)NCCc2ccc(Cl)cc2)ccc1F,inactive: 5.97%,,
CC(C)(C)C(=O)Nc1nnc2n1CCS2,,inactive,
Cc1c(C(=O)Nc2cccc(C(F)(F)F)c2)oc2ccc(S(=O)(=O)N3CCC4(CC3)OCCO4)cc12,inactive: -4.71%,,
Cc1ccc2c(c1)N(C(=O)CCC(=O)Nc1ccc(F)cc1F)CC(C)O2 (configuration not stated),inactive: 0.022%,,
Cc1nn(S(=O)(=O)c2ccc(F)cc2)c(C)c1S(=O)(=O)N1CCCCC1,inactive: -18.2%,,
CCOC(=O)c1c(C)[nH]c(C)c1S(=O)(=O)N1CCC(C(=O)NCc2cccc(C)c2)CC1,inactive: -4.28%,,
O=C(Nc1ccc(-c2nc3ccccc3s2)c(O)c1)c1ccc(Br)cc1,inactive: 1.01%,,
Cc1ccc(NC(=O)C2CCN(S(=O)(=O)c3cccc4nonc34)CC2)c(Cl)c1,inactive: 1.23%,,
CCc1ccccc1NC(=O)CSc1nc(C)c(C(=O)Nc2ccccc2)c(-c2ccc(Cl)cc2)c1C#N,inactive: -24.5%,,
Cc1cccc(NC(=O)CSc2nnc3[nH]c(=O)cc(C)n23)c1C,inactive: -5.31%,,
CCOC(=O)C1=C(CS(=O)(=O)c2ccc(C(C)(C)C)cc2)NC(=O)NC1c1cccc(OC)c1 (configuration not stated),inactive: 4.24%,,
Cc1cc(=O)c2c(O)c3c(O)cc(=O)c4c3c3c(cc(O)c1c23)C(C)(C)C=4O,inactive: -2.91%,,
Cc1cc(S(=O)(=O)Nc2cc3c(cc2NCc2ccccc2)n(C)c(=O)n3C)ccc1F,inactive: -2.49%,,
O=C(CSCc1ccc(F)cc1)N1CCc2c([nH]c3ccccc23)C1c1ccc(F)cc1 (configuration not stated),inactive: -0.907%,,
O=C(CCn1c(=O)c2cccn2c2cccnc21)Nc1ccccc1Br,inactive: 6.28%,,
COc1ccc(-c2cc3c(=O)n(CC(=O)Nc4ccc(Br)c(C)c4)ccn3n2)cc1OC,,inactive,

Structure (SMILES),"activity change, negative = inhibition",outcome,Potency
COc1ccc(N2CCN(C(=O)c3cnc(SC)nc3C)CC2)cc1,,inactive,
Cc1ccc(S(=O)(=O)c2nnn3c2nc(N2CCCC2)c2sccc23)cc1C,inactive: -9.64%,,
Cc1ccccc1CN1C(=O)c2ccccc2S(=O)c2ccc(C(=O)NC3CCC(C)CC3)cc21 (configuration not stated),inactive: -10.2%,,
CC(=O)N1c2c(cc(Br)cc2S(=O)(=O)N2CCN(c3cc(C)ccc3C)CC2)CC1C (configuration not stated),inactive: 1.54%,,
OC[C@H](Cc1ccccc1)Nc1nc(Oc2ccc3c(c2)CCC3)nc2c1ncn2Cc1ccc(-c2ccccc2)cc1,inactive: 21.5%,,
O=C(c1ccc2c(c1)N(Cc1cccc(F)c1)C(=O)c1ccccc1S2)N1CCOCC1,inactive: -12.3%,,
COc1ccc(/C=C/C(=O)Nc2ccc3nc4c(c(Nc5ccccc5OC)c3c2)CCCC4)cc1,,,active: 1260 nM
Cc1ccc(S(=O)(=O)c2nnn3c2nc(N2CCN(c4ccccc4F)CC2)c2cc(Cl)ccc23)cc1C,inactive: 3.96%,,
COc1ccc(OC)c(NC(=O)C2=C(C)C(=O)OC23CCCCCC3)c1,inactive: 11.7%,,
CCc1ccc(NC(=O)c2sc3nc(C)c(Cl)c(C)c3c2NC(=O)c2ccccc2OC)cc1,,inactive,
CC1=C(C#N)C(NC(=O)c2ccccc2Cl)(C(F)(F)F)C(=O)N1 (configuration not stated),,inactive,
CCN(C(=O)CSc1nc2ncccc2[nH]1)c1ccc(C(C)C)cc1,,inactive,
COc1cccc(-c2ncnn2-c2sc3c(c2C#N)CCCCC3)c1OC,inactive: -2.77%,,
O=C(COc1ccc(Cl)cc1)Nc1nnc(S(=O)(=O)N2CCc3ccccc32)s1,,inactive,
CCOCCc1nn2c(=O)cc(COC(=O)CNC(=O)c3cccc(C)c3)nc2s1,,inactive,
Cc1ccc2c(=O)cc(C(=O)Nc3nc4ccc(Cl)cc4s3)oc2c1C,inactive: -2.23%,,
CCN(CC)CCCNC(=O)c1cnc(SC)nc1-c1ccccc1,inactive: 3.26%,,
CCN(CC)CCCNC(=O)c1cn(C)c2ccc(S(=O)(=O)N(C)C3CCCCC3)cc2c1=O,inactive: -7.28%,,
Cc1ccc(CN(C(=O)COc2ccc([N+](=O)[O-])cc2)c2ccccn2)cc1,inactive: 1.59%,,
COc1ccccc1NC(=O)c1c(NCc2ccc(OC)c(OC)c2OC)sc2c1CCC2,inactive: 0.572%,,
CCOC(=O)c1c(C)[nH]c(C)c1S(=O)(=O)N(C)CC(=O)N1CCN(c2ccccc2)CC1,,inactive,
CC(C)c1ccc(NC(=O)Cn2cc(S(=O)(=O)N3CCN(c4ccccc4F)CC3)c3ccccc3c2=O)cc1,inactive: 1.23%,,
CCOc1ccc(CCNC(=O)c2cn(C)c3ccc(S(=O)(=O)N4CCCCCC4)cc3c2=O)cc1OCC,,inactive,
